Patent publication USRE47786E1, “Haloalkyl heteroaryl benzamide compounds” (Romark Laboratories, L.C., priority 2009, dated 2019)

How the values were obtained:
Type in all cases: cell-based
Rhinovirus (RHV-2) = test: Virus yield, Rhinovirus (RHV-2) in HeLa R19 cells
Herpesvirus (HSV-1) = test: Virus yield, Herpesvirus (HSV-1) in Hep-2 cells
Adenovirus (Ad5) = test: Virus yield, Adenovirus (Ad5) in HeLa R19 cells
[1] = test system: Paramyxovirus (Sendai virus); test: Virus yield, Paramyxovirus (Sendai virus) in 37RC cells
Influenza A (PR8) = test system: Influenza A (PR8)
Rotavirus (Simian SA11) = test: Virus yield, Rotavirus (Simian SA11) in MA104 cells
Rotavirus (WAG8P1) = test: Virus yield, Rotavirus (WAG8P1) in MA104 cells
Coronavirus (CCoV) = test: Virus yield, Coronavirus (CCoV) in A72 cells
[2] = test system: Respiratory Syncytial Virus (RV-A2); test: Virus yield, Respiratory Syncytial Virus (RV-A2) in HeLa cells
Rhabdovirus (VSV) = settings: MA104 cells

SMILES | Virus Yield ID50 (Rhinovirus (RHV-2)) [µg/mL] | Virus Yield ID90 (Rhinovirus (RHV-2)) [µg/mL] | Virus Yield ID50 (Herpesvirus (HSV-1)) [µg/mL] | Virus Yield ID90 (Herpesvirus (HSV-1)) [µg/mL] | Virus Yield ID50 (Adenovirus (Ad5)) [µg/mL] | Virus Yield ID90 (Adenovirus (Ad5)) [µg/mL] | Virus Yield ID50 [1] [µg/mL] | Virus Yield ID90 [1] [µg/mL] | Virus Yield ID50 (Influenza A (PR8)) [µg/mL] | Virus Yield ID90 (Influenza A (PR8)) [µg/mL] | Virus Yield ID50 (Rotavirus (Simian SA11)) [µg/mL] | Virus Yield ID90 (Rotavirus (Simian SA11)) [µg/mL] | Virus Yield ID50 (Rotavirus (WAG8P1)) [µg/mL] | Virus Yield ID90 (Rotavirus (WAG8P1)) [µg/mL] | Virus Yield ID50 (Coronavirus (CCoV)) [µg/mL] | Virus Yield ID90 (Coronavirus (CCoV)) [µg/mL] | Virus Yield ID50 [2] [µg/mL] | Virus Yield ID50 (Rhabdovirus (VSV)) [µg/mL] | Virus Yield ID90 (Rhabdovirus (VSV)) [µg/mL]
CC(=O)Oc1ccccc1C(=O)Nc1ncc(C(F)(F)F)s1 [Compound 1] | 9 | >50 | 0.2 | 2 | 0.1 | 3.5 |  |  |  |  |  |  |  |  |  |  |  |  | 
CC(=O)Oc1ccccc1C(=O)Nc1nc(C(F)(F)F)cs1 [Compound 3] |  |  | 0.03 | 1.5 |  |  |  |  |  |  |  |  |  |  |  |  |  |  | 
O=C(Nc1nc(C(F)(F)F)cs1)c1ccccc1O [Compound 4] |  |  | 0.15 | 1.5 |  |  |  |  |  |  |  |  |  |  |  |  |  |  | 
CC(=O)Oc1ccccc1C(=O)Nc1nnc(C(F)(F)F)s1 [Compound 5] |  |  |  |  |  |  | 3 | 9 | 3 | 9 |  |  |  |  |  |  |  |  | 
O=C(Nc1nnc(C(F)(F)F)s1)c1ccccc1O [Compound 6] |  |  | 0.2 | 1 |  |  |  |  |  |  |  |  |  |  |  |  |  |  | 
CC(=O)Oc1ccccc1C(=O)Nc1ncc([N+](=O)[O-])s1 [Nitazoxanide] | 2.5 | >50 | 0.025 | 0.5 | 1.5 | 15 | 1 | 6 | 1 | 7 | 1 | 10 | 10 | 40 |  |  |  |  | 
O=C(Nc1ncc([N+](=O)[O-])s1)c1ccccc1O [Tizoxanide] | 0.3 | 40 | 2 | 5 | 0.2 | 0.3 | 0.5 | 5 | 1 | 9 | 0.5 | 4 | 1 | 15 | 1 | 1.5 | 0.5 | 2 | 15
